{"source": "patent US9511047B2", "about": "“Delphinidin for combating melanoma cells” (priority 2012, dated 2016)", "system": "human fibroblasts", "assay": "Cell vitality, ATP luminescence assay, fibroblasts (Example 12)", "conditions": "0.1-100 μM (0.1; 3.2; 100 μM); 4 h, 24 h, 48 h and 96 h (FIG. 19)", "data": [{"compound": "Oc1cc(O)c2cc(O)c(-c3cc(O)c(O)c(O)c3)[o+]c2c1.[Cl-]", "note": "[delphinidin Cl, delphinidin chloride]", "values": [{"measurement": "Cytotoxic effects on human fibroblasts (vitality)", "value": "no significant cytotoxic effects"}]}]}
